Measured values: PubChem BioAssay AID624296 (National Center for Advancing Translational Sciences (NCATS), 2012)
The campaign covered roughly 350,000 compounds. About 9,900 (2.8%) were called active. The shares of active, inactive and inconclusive entries below differ from those in the screen. The call rests on the fitted dose curve; in most records, active means well fitted activation curve with a large enough effect; inconclusive means small, poorly fitted or top-dose-only effect; inactive means no such curve, though single readings can be large or run the other way. Potencies of inconclusive entries are left out as doubtful fits.

assay: A quantitative high throughput screen for small molecules that induce DNA re-replication in MCF 10a normal breast cells.; further: nearly all actives have a fitted effect of over 50% in size; details: MCF 10A DNA re-replication, Hoechst nuclear intensity, 48 h; series mostly up to 46.1 µM
Text: H Molecular Libraries Probe Production Network [MLPCN]
NIH Chemical Genomics Center [NCGC]
Assay Provider: Melvin DePamphilis, NICHD, NIH
Eukaryotic cells normally restrict genome duplication to once per cell division. When this process is aberrant, DNA re-replication occurs when cells reinitiate DNA replication before the first round of replication is complete. DNA re-replication induces the DNA damage response, arrests cell proliferation, and triggers apoptosis. The cell cycle components cyclin A, Cdt-1, Cdc6 and geminin are critical regulators of this process and their misregulation results in DNA re-replication in normal and cancer cells. To identify compounds that induce re-replication in normal cells, an image-based assay was used to measure DNA content of nuclei, as detected by the fluorescent DNA binding dye, Hoechst. Cell nuclei were imaged by a fluorescence scanning plate imager and compounds that induce DNA re-replication were identified by the increase of nuclei with elevated fluorescence intensity
For screening, 250 cells in 5 uL/well were dispensed into black clear 1536-well plates (Aurora) using a solenoid-based dispenser. Following transfer of 23 nL compound or DMSO vehicle by a pin tool, the plates were incubated 48 hr at 37 C and 5% CO2. After addition of 1 uL/well Hoescht stain, the plates were incubated 40 min at 37 C, 5% CO2 and total intensity of fluorescent objects (nuclei) were enumerated by an Acumen Explorer Ex3 (TTP LabTech) fluorescence scanning plate imager (405 nm excitation, 500-530 nm emission).
Keywords: NIH Roadmap, MLPCN, MLI, MLSMR, qHTS, NCGC, DNA replication, cancer
Potency means the concentration at half of the fitted maximal effect; tags describe the fitted curve by direction and shape.

| SMILES | Potency |
| --- | --- |
| CC1CCc2c(C(=O)Oc3cccc(-n4cnnn4)c3)csc2C1 (centres undefined) | inconclusive [activator, partial curve, poor fit] |
| Cc1ccsc1C(=O)Nc1n[nH]c(C(F)(F)F)n1 | inconclusive [activator, single point] |
| COc1ccc(/C=C/c2nc(C#N)c(NCCN(C)C)o2)cc1OC | inconclusive [activator, partial curve, poor fit] |
| O=C1NC(c2ccccc2Cl)Nc2ccccc21 (centres undefined) | inconclusive [activator, partial curve, poor fit] |
| Cn1nc(C(=O)NC2CCCCC2)c2c1-c1ccccc1SC2 | inactive |
| COc1ccc(C(C(=O)NC2CCCC2)N(CCN(C)C)C(=O)c2snc(C(N)=O)c2N)cc1 (centres undefined) | inactive |
| Cc1ccc(N2CC(NC(=O)N3CCN(C(=O)c4ccco4)CC3)CC2=O)cc1 (centres undefined) | inactive |
| Cc1ccc(-n2ncc3c(=O)n(CC(=O)N(C(C)C)C(C)C)cnc32)cc1 | inactive |
| COc1ccc(C(=O)Nc2ccc(N3CCCC3)cc2)cc1OC | inconclusive [activator, single point] |
| CCn1c(-c2ccccc2)c(C(=O)CCl)c2ccccc21 | active: 23.1 µM |
| Cc1ccc(NC(=O)C2CC(=O)N(c3ccc4c5c(cccc35)CC4)C2)cc1 (centres undefined) | inconclusive [activator, partial curve, poor fit] |
| Nc1cc2c(cc1Br)-c1ccc(F)cc1C2=O | inactive |
| c1ccc(C[n+]2csc3ccccc32)cc1 | active: 23.1 µM |
| COc1ccc(C(=O)NC(=S)NCc2cccnc2)cc1[N+](=O)[O-] | inconclusive [activator, partial curve, poor fit] |
| Cc1nn(CCCC(=O)NCCc2ccccc2)c(C)c1[N+](=O)[O-] | inactive |
| COc1cc(/C=N/Nc2cccc3cccnc23)cc(OC)c1O | inconclusive [activator, single point] |
| CC(C)(C)OC(=O)CN1c2cccc3cccc(c23)S1(=O)=O | inactive |
| CC(COc1ccc(/C=C/c2ccccc2)cc1)[N+](C)(C)C (centres undefined) | inconclusive [activator, partial curve, poor fit] |
| Nc1ncnc2c1ncn2C1CCC(CO)C(O)C1 (centres undefined) | inactive |
| COc1ccc(-c2[nH]ncc2CNCC(C)(C)N2CCOCC2)cc1F | inactive |
| Cc1ccc(S(=O)(=O)Cn2nnnc2C(C)N2CCN(C(=O)c3ccco3)CC2)cc1 (centres undefined) | inactive |
| COc1ccccc1C(=O)OC(C)CN1CCN(C)CC1 (centres undefined) | inactive |
| O=C(Nc1ccncc1)C1CCN(S(=O)(=O)c2ccc(Cl)c(C(F)(F)F)c2)CC1 | inconclusive [activator, single point] |
| CCC1CCC(N2CCN(c3cccc(OC)c3)CC2)CC1 (centres undefined) | active: 5.17 µM |
| COc1ccc(CNC(=O)C(NC(C)=O)C(=O)Nc2ccc(C(C)C)cc2)cc1 (centres undefined) | inactive |

| SMILES | Potency |
| --- | --- |
| COc1cc(NC(=O)CCc2nnc3ccc(N4CCCCC4)nn23)cc(OC)c1OC | inactive |
| Oc1ccc(Oc2ccc3c(C(F)(F)F)cc(C(F)(F)F)nc3n2)cc1 | inconclusive [activator, single point] |
| COc1ccc(Cl)cc1NC(=O)CN(C)C(=O)c1ccc2c(c1)CC(c1ccccc1)OC2=O (centres undefined) | inconclusive [activator, single point] |
| CCn1c(SC)nc2cc(S(=O)(=O)N3CCCCC3)ccc21 | inactive |
| COc1ccccc1NC(=O)c1ccc([N+](=O)[O-])o1 | inconclusive [activator, single point] |
| Cc1nn(C(C)C(=O)O)c2ccccc12 (centres undefined) | inconclusive [activator, full curve, poor fit] |
| Cc1cccc(N2CCN(C(=O)CCNS(=O)(=O)c3cccs3)CC2C)c1 (centres undefined) | inactive |
| COc1ccc(-c2cc(C(=O)N3CCN(c4ccccn4)CC3)c3ccccc3n2)cc1 | inconclusive [activator, single point] |
| CC(=O)Nc1cccc(OCCCNS(=O)(=O)c2ccc(C#N)cc2)c1 | inactive |
| Cn1cnc2nc(Cl)nc(Cl)c21 | active: 7.31 µM |
| CCCc1[nH][nH]c(=O)c1C(c1ccccc1)C(C#N)C#N (centres undefined) | inactive |
| Cc1ccc(Nc2nc3ccccc3n3nnnc23)cc1 | inconclusive [activator, single point] |
| CC(C)CC(=O)NNC(=S)NCc1ccco1 | inactive |
| Cc1cccc(NC(=O)C2CCN(C(=O)NCc3ccccc3)CC2)c1C | inactive |
| O=C(Nc1cccc(C(F)(F)F)c1)Nc1ccc(N2CCCC2)c(S(=O)(=O)Nc2ccccc2Cl)c1 | active: 4.61 µM |
| COc1ccc(Cc2nnc(NCCO)[nH]c2=O)cc1OC | inconclusive [activator, single point] |
| Cc1onc(-c2ccccc2Cl)c1C(=O)N(Cc1nc(-c2ccccc2)no1)C1CCCCC1 | inconclusive [activator, partial curve, poor fit] |
| CCOc1ccc(-n2ccnc(SCC(=O)Nc3ccc(CC)cc3)c2=O)cc1 | inconclusive [activator, single point] |
| COc1cccc(C(=O)COC(=O)C(C)N2C(=O)c3ccccc3C2=O)c1 (centres undefined) | inconclusive [activator, partial curve, poor fit] |
| Cc1ccc(C)c(N2CCN(S(=O)(=O)c3cc4c(cc3C)NC(=O)CO4)CC2)c1 | inactive |
| CCN(C(=O)CSc1cc(-c2ccccc2)c2ccc(OC)cc2n1)C1CCS(=O)(=O)C1 (centres undefined) | inconclusive [activator, single point] |
| Cc1ccc2nc(-c3ccc(NC(=O)c4cccnc4)cc3)oc2c1 | inconclusive [activator, single point] |
| CCCCn1c(SCC(=O)N2c3ccccc3Sc3ccccc32)nc2c1c(=O)n(C)c(=O)n2C | inactive |
| O=C(CSc1nc2cc(Cl)ccc2s1)NCc1ccc2c(c1)OCO2 | inconclusive [activator, partial curve, poor fit] |
